Hit rate of the full screen: of about 310,000 compounds, about 2,200 (0.71%) showed an effect of 50% or more. Effects have a minus sign here. The list shows a part of the results.
biological target: human ether-à-go-go-related gene (hERG) potassium channel (human, UniProt Q12809); experiment: primary screen, population patch clamp on CHO cells stably expressing hERG
Sequence (Q12809 whole entry, looked up): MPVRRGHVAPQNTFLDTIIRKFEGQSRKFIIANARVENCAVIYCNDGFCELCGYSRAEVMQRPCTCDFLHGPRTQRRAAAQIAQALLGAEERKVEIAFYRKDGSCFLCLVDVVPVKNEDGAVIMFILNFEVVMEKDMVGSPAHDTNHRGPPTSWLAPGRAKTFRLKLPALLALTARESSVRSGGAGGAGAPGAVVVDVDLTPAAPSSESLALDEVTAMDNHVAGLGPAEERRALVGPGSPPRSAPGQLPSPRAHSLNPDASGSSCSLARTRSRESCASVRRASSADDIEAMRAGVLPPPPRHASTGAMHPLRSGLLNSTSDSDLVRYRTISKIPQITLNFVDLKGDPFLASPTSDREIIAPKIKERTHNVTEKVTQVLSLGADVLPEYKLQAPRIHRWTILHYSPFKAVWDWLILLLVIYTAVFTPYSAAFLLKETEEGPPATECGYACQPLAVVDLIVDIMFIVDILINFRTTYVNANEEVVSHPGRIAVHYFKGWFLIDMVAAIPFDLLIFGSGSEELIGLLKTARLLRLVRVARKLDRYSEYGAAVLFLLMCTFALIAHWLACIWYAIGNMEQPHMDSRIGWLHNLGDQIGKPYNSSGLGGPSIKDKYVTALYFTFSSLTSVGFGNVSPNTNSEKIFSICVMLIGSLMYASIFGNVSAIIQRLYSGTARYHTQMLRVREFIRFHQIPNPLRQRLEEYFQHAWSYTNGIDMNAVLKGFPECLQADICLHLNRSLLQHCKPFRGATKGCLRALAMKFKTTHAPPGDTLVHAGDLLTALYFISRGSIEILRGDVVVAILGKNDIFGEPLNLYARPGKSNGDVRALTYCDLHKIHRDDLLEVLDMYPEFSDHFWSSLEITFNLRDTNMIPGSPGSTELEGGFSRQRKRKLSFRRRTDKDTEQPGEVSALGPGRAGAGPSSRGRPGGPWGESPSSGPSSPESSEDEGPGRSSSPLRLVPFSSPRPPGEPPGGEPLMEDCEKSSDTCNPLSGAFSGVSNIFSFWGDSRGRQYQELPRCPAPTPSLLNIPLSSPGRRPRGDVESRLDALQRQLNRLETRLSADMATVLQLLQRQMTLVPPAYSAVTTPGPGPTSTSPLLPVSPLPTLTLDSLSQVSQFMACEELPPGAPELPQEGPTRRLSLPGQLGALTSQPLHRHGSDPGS

Row | Compound | hERG current change (%, negative = inhibition) at 1uM
1 | COc1ccc(C2CC(C(F)(F)F)n3ncc(C(=O)NCc4cccnc4)c3N2)cc1OC (stereo not drawn) | 12.7%
2 | CCC(=O)Nc1ccc(NC(=S)NC(=O)Cc2ccccc2)cc1 | 16.2%
3 | Cc1ccc(Cl)cc1N1CCN(S(=O)(=O)c2cccc(S(=O)(=O)N3CCCC3)c2)CC1 | 9.31%
4 | O=C(Cc1ccccc1)NCC(=O)N1CCC1 | 10.8%
5 | O=C1Nc2cc(Cl)c(Cl)cc2N(O)N1c1ccccc1 | 14.6%
6 | Cc1ccc(CSc2nnc(SCC(=O)N/N=C/C=C/c3ccccc3[N+](=O)[O-])s2)cc1 | 8.94%
7 | Cc1ccccc1Nc1c([N+](=O)[O-])cncc1[N+](=O)[O-] | 9.67%
8 | CCN1C(=O)[C@@H]2[C@@H](c3ccc(-c4ccc(F)cc4)cc3)N3CCCC[C@@]3(C(=O)OC)[C@@H]2C1=O.O=C(O)C(F)(F)F | 9.58%
9 | CCOC(=O)Cn1nc2sc3ccccc3n2c(=O)c1=O | 0.315%
10 | COc1ccc(/C=N/NC(=O)c2cccnc2)cc1O | 14.8%
11 | CC(C)N(C)C(=O)C(=O)c1cccn1-c1cccc(Cl)c1C#N | 11%
12 | C=CCN=C1SC(CC)C(=O)N1S(=O)(=O)c1ccc(C)cc1 (stereo not drawn) | -13.8%
13 | CCC(=O)Nc1ccc(C(=O)N/N=C/c2ccccc2[N+](=O)[O-])cc1 | 18.9%
14 | CCOC(=O)c1ccc(NC(=O)NCc2ccccc2OC)cc1 | 13.8%
15 | COCCN(C(=O)CCCc1nc2ccccc2s1)c1c(N)n(CC(C)C)c(=O)[nH]c1=O | 16.3%
16 | CS(=O)(=O)N1CCC(C(=O)Nc2cccc(C(F)(F)F)c2)CC1 | -1.35%
17 | NS(=O)(=O)c1ccc(-c2ccc(/C=C3\SC(=O)NC3=O)o2)cc1 | 18.3%
18 | O=C(c1ccc(Cl)cc1)N1CCC(=O)N(C(CO)Cc2ccccc2)CC1 (stereo not drawn) | 11.3%
19 | O=C(CNS(=O)(=O)c1ccc(Br)cc1)NCc1ccncc1 | 11.3%
20 | CCCCn1c(O)c(C(C)=NCCc2c[nH]c3ccccc23)c(=O)[nH]c1=O | -1.27%
21 | Cc1ccc(S(=O)(=O)NC(CC(=O)N2CCc3ccccc32)c2ccco2)cc1 (stereo not drawn) | 6.47%
22 | CC1CCC(NC(=O)CN(C)S(=O)(=O)c2ccc3c(c2)c(=O)n(C)c(=O)n3C)CC1 (stereo not drawn) | 6.81%
23 | CCOc1ccc(CNC(=O)c2ccc(Sc3ccc(C)cc3)c(NC(C)=O)c2)cc1OC | 6.67%
24 | CCN(CCn1cccn1)Cc1nc(-c2ccc(OC)cc2)no1 | 1.32%
25 | COc1cc(OC)c(NC(=O)CS(=O)(=O)Cc2nc(-c3ccc(C)cc3)oc2C)cc1Cl | 16.1%
26 | CC(=O)CCc1c(C)c2cccc(C)c2[nH]c1=O | 8.68%

Row | Compound | hERG current change (%, negative = inhibition) at 1uM
27 | CC(Sc1nc(-c2ccc(F)cc2)cs1)C(=O)Nc1ccc(Cl)cn1 (stereo not drawn) | 11%
28 | Cc1cccc(C)c1NC(=O)CN1C(=O)NC(C)(CCc2ccccc2)C1=O (stereo not drawn) | 11.9%
29 | Cc1cccc(S(=O)Cc2ccc(C(=O)NC3CCN(Cc4ccccc4)CC3)o2)c1 (stereo not drawn) | 10.5%
30 | CCCN(CCC)CCNC(=O)CS(=O)Cc1nc(-c2ccc(C)cc2)oc1C (stereo not drawn) | -11.3%
31 | COc1ccc(COC(=O)c2ccc(C)c(S(=O)(=O)N3CCOCC3)c2)cc1F | 16%
32 | COc1ccc2nc(NC(=O)CCNC(=O)c3ccco3)sc2c1 | -0.259%
33 | O=C(O)c1cccc(NC(=O)c2cccc(S(=O)(=O)N3CCCCC3)c2)c1 | 9.28%
34 | CCC(C)NC(=O)C(Cc1ccccc1)n1cccc1 (stereo not drawn) | 7.43%
35 | CCCNC(=O)c1ccc2c(=O)c(O)c(-c3ccc(OC)cc3)[nH]c2c1 | 11.9%
36 | C[C@H]1O[C@H](O[C@H]2[C@H](O[C@@H]3CC[C@@]4(C)C(CC[C@]5(C)C4CC=C4[C@@H]6CC(C)(C)CC[C@]6(C(=O)O[C@@H]6O[C@H](CO)[C@@H](O)[C@H](O)[C@H]6O)CC[C@]45C)C3(C)C)O[C@H](C(=O)O)[C@@H](O)[C@@H]2O)[C@@H](O)[C@@H](O)[C@@H]1O (stereo partly drawn) | 12.3%
37 | O=C(CCN1C(=O)/C(=C/c2ccccc2)SC1=S)NNC(=O)c1ccncc1 | 8.35%
38 | CC(=O)N1c2ccc([N+](=O)[O-])cc2NC(=O)CC1C (stereo not drawn) | 12%
39 | Cc1ccc(N2CCN(C(=S)c3ccc(N(C)C)cc3)CC2)cc1 | 1.97%
40 | O=C(Nc1cccc(C(F)(F)F)c1)c1ccc(-n2cncn2)nc1 | 5.62%
41 | COc1ccc(C(CNC(=O)C(Cc2ccccc2)NC(N)=O)N(C)C)cc1 (stereo not drawn) | 12.8%
42 | Cc1ccc(Sc2ncccc2C(=O)N(C)Cc2cccs2)c(C)c1 | 13.1%
43 | CC1(C)C(O)=C(c2nc3ccccc3[nH]2)C(=N)N1c1ccccc1 | 5.93%
44 | CC(=O)Nc1ccc(S(=O)(=O)N2CCC(C(=O)NCCC(=O)Nc3ccccc3)CC2)cc1 | 8.98%
45 | Cc1nc2c(C(=O)NCCC(C)C)c[nH]n2c(=O)c1Cc1ccccc1F | 6.55%
46 | COc1ccc(N(C(=O)c2ccco2)S(=O)(=O)c2cc(Cl)c(Cl)cc2Cl)cc1 | -1.28%
47 | CCc1ccc(NC(=O)c2ccc(F)c(S(=O)(=O)NCC3COc4ccccc4O3)c2)cc1 (stereo not drawn) | 10.1%
48 | CCC(=O)N1CCN(c2ccccc2NC(=O)COc2cc(C)ccc2C(C)C)CC1 | -1.03%
49 | COCC(=O)n1nc(-c2ccc(Cl)cc2)nc1NCc1ccc(F)cc1 | 3.13%
50 | COc1ccc(NC(=O)CSc2nc(N)c(NC(=O)c3cccs3)c(=O)[nH]2)cc1 | 10.2%
51 | Cc1cccnc1NC(=S)Nc1ncccc1C | 13.3%

— article PMC4336329 (PLoS ONE, 2015)
